# Measured values published in PubChem BioAssay AID463173 (ICCB-Longwood Screening Facility, Harvard Medical School, 2010).
# Among all 52,000 compounds or so, about 1,700 (3.3%) were called active. Cut-off read from the data, not from the text of the source: active = survival mostly below about 52% (no sharp cut-off); inactive = mostly above about 56%. The list shows a part of the results.
# System: Wild type
# Assay: S. aureus survival, RN4220 and DeltatarO strains – OD600, teichoic acid synthesis inhibitors, primary screen (AID 463173)
# Settings: S. aureus RN4220 wild type/DeltatarO growth, OD600, 18 h, hits give low values, screened at 18.75 µg/mL (by protocol)
row,Compound,survival
1,Cc1ccccc1Cn1c2ccccc2c2cnn(CC(=O)NCc3cccc(Cl)c3)c(=O)c21,inactive: 79%
2,Cc1ccc(NC(=O)CSc2nc3c(oc4ccccc43)c(=O)n2Cc2ccco2)cc1F,inactive: 71%
3,Cc1nc(-n2nc(C)c(Cc3ccc(Cl)cc3)c2C)sc1C(=O)N1CCC(C)CC1,inactive: 85%
4,CC(N=Cc1cccc(O)c1O)c1ccccc1 (configuration not stated),inactive: 126%
5,CCOC(=O)CCc1nn(C)c(=O)c2ccccc12,inactive: 111%
6,CC(C)c1ccc(OCC(=O)Nc2ccc(S(=O)(=O)Nc3ncccn3)cc2)cc1,inactive: 94%
7,COc1ccc(CNC(=O)c2cc3c(=O)n(Cc4ccco4)ccc3nc2C)c(OC)c1,inactive: 93%
8,CC(=O)N1CCCc2cc(S(=O)(=O)N(C)CC(=O)Nc3ccc(C(C)C)cc3)ccc21,inactive: 74%
9,Cn1cc(-c2cc3n(n2)CCC(=O)N3CCCC(=O)Nc2ccc(Cl)cc2)c2ccccc21,inactive: 80%
10,O=C1CC(c2ccccc2)Sc2ccccc2N1Cc1ccccc1F (configuration not stated),inactive: 96%
11,CC(C)OC(=O)c1c(NC(=O)c2cccc(C(F)(F)F)c2)sc2c1CCCC2,inactive: 77%
12,O=C1Nc2nc(=O)nc3[nH]c(=O)nc(n23)N1,inactive: 94%
13,COc1cccc(CNC(=O)c2sc3nc[nH]c(=O)c3c2C)c1,inactive: 76%
14,COc1ccc(CNC(=O)CCC2N=C3c4ccccc4N=C(SCC(=O)NCCc4ccc(OC)c(OC)c4)N3C2=O)cc1 (configuration not stated),inactive: 69%
15,COc1ccc(NC(=O)Cn2ccn(-c3ccc(F)c(F)c3)c(=O)c2=O)cc1Cl,inactive: 83%
16,COc1cccc(N2CCN(C(=O)c3cnc4c(-c5ccc(F)cc5)c(C)nn4c3C)CC2)c1,active: -6%
17,COc1ccc(C(=O)Oc2c(Sc3ccccc3)c(C)nn2-c2ccccc2)c(OC)c1,inactive: 108%
18,COc1ccc(C)c2sc(NC(=O)c3ccc(S(=O)(=O)N4CCOCC4)cc3)nc12,inactive: 79%
19,COc1ccccc1CNC(=O)C(=O)NCC(c1ccco1)S(=O)(=O)c1ccc(F)cc1 (configuration not stated),inactive: 83%

row,Compound,survival
1,Cc1c(C(C)(C)C)sc(=N)n1C,inactive: 86%
2,Cc1cccc(C)c1OCCn1c(CCNC(=O)C2CCCCC2)nc2ccccc21,inactive: 65%
3,CCOc1ccc(NC(=O)c2cc(-c3ccc(C)c(F)c3)on2)c([N+](=O)[O-])c1,inactive: 85%
4,C=CCn1c(=O)c(C2=NS(=O)(=O)c3ccccc3N2)c(O)c2ccccc21,inactive: 96%
5,COC(=O)c1ccccc1NS(=O)(=O)c1cc2c3c(c1)CC(=O)N3CCC2,inactive: 64%
6,CC1=NN(c2ccc(S(N)(=O)=O)cc2)C(=O)C1,inactive: 113%
7,CC(C)(C)c1ccc(C(=O)NCC(c2ccco2)S(=O)(=O)c2ccccc2)cc1 (configuration not stated),inactive: 70%
8,O=C(Cn1c(=O)sc2ccccc21)Nc1ccc(O)cc1,inactive: 103%
9,CCN(CC)S(=O)(=O)c1ccc2c(c1)N(CC(=O)Nc1ccc(Cl)cc1)C(=O)C1CCCN21 (configuration not stated),inactive: 82%
10,COc1cccc(C(=O)Nc2nc(-c3nnn(-c4ccccc4C(F)(F)F)c3C)ns2)c1,inactive: 76%
11,CCOc1ccc2nc(N(Cc3cccnc3)C(=O)c3cccs3)sc2c1,inactive: 68%
12,COc1cccc(-c2nc(Cn3c(=O)cc(C)c4c(C)nn(-c5ccccc5)c43)c(C)o2)c1OC,inactive: 74%
13,COc1ccc(-c2nc3ccccc3n2Cc2ccccc2)cc1,active: 0%
14,Cc1c(Cl)ccc2sc(N3CCN(C(=O)CCS(=O)(=O)c4ccc(F)cc4)CC3)nc12,active: -3%
15,Cc1ccc(-n2nc(C)c3c(C(=O)Nc4ccccc4C(F)(F)F)cc(C)nc32)cc1,inactive: 69%
16,Cc1ccc2c(c1)C(c1ccccc1)N(C(=O)COc1ccc(Cl)cc1Cl)CC(=O)N2 (configuration not stated),inactive: 69%
17,CC1=C(C(=O)Nc2ccccc2)C(c2ccccn2)n2nc(SCc3ccccc3)nc2N1 (configuration not stated),inactive: 85%
18,CCCCN1C(=O)C(O)(CC(=O)c2ccc(CC)cc2)c2cc(Br)ccc21 (configuration not stated),active: 2%
19,CCCN(C(=O)c1cc2c(=O)oc3ccc(C)cc3c2s1)c1ccc(OCC)cc1,inactive: 62%

row,Compound,survival
1,O=c1oc2cc(Br)ccc2n1CO,inactive: 102%
2,Cc1ccc(-c2noc(C3CCCN(C(=O)c4ccccc4)C3)n2)o1 (configuration not stated),inactive: 131%
3,COc1cccc(CNC(=O)Cn2nc(C)n3c(cc4cc(C)ccc43)c2=O)c1OC,inactive: 133%
4,CCSc1nc(-c2cccc(Cl)c2)nc2c1Cc1c(CO)cnc(C)c1O2,inactive: 114%
5,Cc1c[n+](CC(=O)c2ccccc2)c(C)cn1,inactive: 124%
6,Cc1cc(C)c(NC(=O)CSc2nc(=O)n(Cc3ccncc3)c3c2CCC3)c(C)c1,inactive: 85%
7,CCc1nn(CC(=O)N2CCN(c3cccc(C)c3)C(C)C2)c(=O)c2cc3sccc3n12 (configuration not stated),inactive: 134%
8,CCN1CCN(C(=S)Nc2ccccc2)CC1,inactive: 112%
9,CCOCCCNC(=O)C(c1ccc(C)cc1)N(Cc1ccc2c(c1)OCO2)C(=O)c1ccccc1O (configuration not stated),inactive: 73%
10,Cc1ccc(NC(=O)n2ncc3c(C)cccc32)c(C)c1,inactive: 85%
11,O=C(CSc1nnc2scc(-c3ccc(Cl)cc3)n12)Nc1ccc(F)cc1,inactive: 71%
12,COc1ccccc1C(=O)NC1(C(F)(F)F)NC(=O)N(CCc2ccccc2)C1=O (configuration not stated),inactive: 60%
13,Cc1ccc(Nc2c(-c3cccnc3)nc3ccc(C)cn23)cc1,inactive: 69%
14,COc1cccc(C2=CC(c3ccccc3F)n3ncc(C(=O)Nc4ccc(F)cc4)c3N2)c1 (configuration not stated),inactive: 68%
15,Cc1ccc(N(C)C(=O)Cn2ncc3c([nH]c4ccccc43)c2=O)cc1C,inactive: 32%
16,CCc1ccc(CNC(=O)c2ccc3c(c2)c(C)c(C)n3Cc2ccccc2)cc1,inactive: 73%
17,O=C(NC1CCCCC1)c1ccc(CSc2nc3ccncc3n2Cc2cccc(F)c2)cc1,inactive: 136%
18,O=C(CSc1nc2c([nH]c3ccccc32)c(=O)n1-c1ccccc1)Nc1cccc(C(F)(F)F)c1,active: -6%
19,O=C(CC1SCC(C(=O)O)NC1=O)NCc1ccccc1 (configuration not stated),inactive: 105%
